Measured values as given in PubChem BioAssay AID504332 (National Center for Advancing Translational Sciences (NCATS), 2011).
In all, about 350,000 compounds went through this assay and about 31,000 (8.9%) were called active. Inconclusive results, whose numbers are uncertain, are shown with a selection of clear calls. The call rests on the fitted dose curve; in most records, active means well fitted inhibition curve with a large enough effect; inconclusive means small, poorly fitted or top-dose-only effect; inactive means no such curve, though single readings can be large or run the other way. Where the call is inconclusive, the potency comes from a doubtful curve fit.

Target: Histone-lysine N-methyltransferase EHMT2 (Homo sapiens) (UniProt Q96KQ7)
Sequence of UniProt Q96KQ7 (Q96KQ7 whole entry, looked up): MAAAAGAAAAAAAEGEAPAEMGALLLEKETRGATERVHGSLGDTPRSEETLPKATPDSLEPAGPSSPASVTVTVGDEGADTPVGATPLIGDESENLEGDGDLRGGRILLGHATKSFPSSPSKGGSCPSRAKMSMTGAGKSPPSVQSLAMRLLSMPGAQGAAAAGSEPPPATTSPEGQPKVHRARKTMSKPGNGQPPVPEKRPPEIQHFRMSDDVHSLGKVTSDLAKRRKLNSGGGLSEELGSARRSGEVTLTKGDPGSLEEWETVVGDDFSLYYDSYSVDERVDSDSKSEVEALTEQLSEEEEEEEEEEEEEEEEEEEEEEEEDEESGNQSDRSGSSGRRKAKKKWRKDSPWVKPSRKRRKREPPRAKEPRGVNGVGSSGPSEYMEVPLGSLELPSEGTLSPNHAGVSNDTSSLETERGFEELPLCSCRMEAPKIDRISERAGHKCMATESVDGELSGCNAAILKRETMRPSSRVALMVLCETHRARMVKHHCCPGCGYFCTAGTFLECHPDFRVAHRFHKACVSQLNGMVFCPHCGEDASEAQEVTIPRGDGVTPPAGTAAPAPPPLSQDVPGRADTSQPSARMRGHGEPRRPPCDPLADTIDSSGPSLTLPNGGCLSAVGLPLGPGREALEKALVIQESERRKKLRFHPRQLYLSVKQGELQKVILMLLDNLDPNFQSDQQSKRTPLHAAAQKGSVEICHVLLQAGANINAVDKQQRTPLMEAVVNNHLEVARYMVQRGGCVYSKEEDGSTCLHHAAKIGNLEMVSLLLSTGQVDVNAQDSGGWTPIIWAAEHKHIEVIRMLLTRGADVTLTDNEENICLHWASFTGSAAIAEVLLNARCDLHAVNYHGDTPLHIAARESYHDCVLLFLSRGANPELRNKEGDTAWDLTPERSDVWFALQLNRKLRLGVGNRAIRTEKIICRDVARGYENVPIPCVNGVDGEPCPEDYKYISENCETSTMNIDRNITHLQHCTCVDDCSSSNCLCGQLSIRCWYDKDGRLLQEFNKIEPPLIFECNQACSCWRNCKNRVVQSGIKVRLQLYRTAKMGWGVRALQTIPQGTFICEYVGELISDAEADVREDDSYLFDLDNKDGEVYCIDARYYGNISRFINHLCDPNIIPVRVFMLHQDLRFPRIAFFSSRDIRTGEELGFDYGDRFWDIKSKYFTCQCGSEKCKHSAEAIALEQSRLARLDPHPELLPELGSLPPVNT
Experiment: qHTS Assay for Inhibitors of Histone Lysine Methyltransferase G9a; further: nearly all actives have a fitted effect of over 75% in size
Settings: G9a H3K9 monomethylation, AlphaScreen, 2 h; activity, negative = inhibition: at 59 µM (top of the series) unless noted
Procedure, shortened: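 G9a (20 nM) preincubated 15 min RT with compounds, then 500 nM biotinylated H3K9 peptide and 20 uM SAM added; 2 h RT reaction. Monomethyl-H3K9 product detected by AlphaScreen with anti-H3K9me1 antibody, streptavidin donor and anti-rabbit IgG acceptor beads.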
On the % scale 0 is the no-effect control and ±100 the full control effect; potency means the concentration at half of the fitted maximal effect; tags describe the fitted curve by direction and shape.

Structure (SMILES) | Potency | activity, negative = inhibition
COc1ccc2[nH]c(=O)c(CNc3cc(C)ccc3C)cc2c1 | inconclusive: 44.7 µM [inhibitor, partial curve, poor fit] | –
Cc1ccc(N2CC(C(=O)Nc3nnc(SCC(=O)Nc4nc(C)cs4)s3)CC2=O)cc1 (stereo not drawn) | inconclusive: 15.8 µM [inhibitor, single point] | –
CCCc1cc(=O)[nH]c(SCC(=O)c2cc(C)n(C)c2C)n1 | active: 50.1 µM | –
CC(C)c1ccc(NC(=O)C2CCN(c3nc(-c4ccc(C(C)C)cc4)no3)CC2)cc1 | – | inactive: 50.8%
CC(/C=C/c1ccco1)=N/NC(=O)c1ccc(C)nc1 | – | inactive: -20.3% [at 102 µM]
Cc1ccccc1NS(=O)(=O)c1cc(S(C)(=O)=O)ccc1C | inconclusive: 1.41 µM [inhibitor, full curve] | –
CN(C)CCN(C(=O)CN1C(=O)c2ccccc2C1=O)c1nc2cc3c(cc2s1)OCCO3 | inconclusive: 89.1 µM [inhibitor, single point] | –
CCCc1nn2c(=O)cc(CSCC(=O)Nc3cccc(OC)c3)nc2s1 | inconclusive: 44.7 µM [inhibitor, partial curve, poor fit] | –
O=C(OCc1cc([N+](=O)[O-])cc2c1OCOC2)c1cccnc1SC(F)F | inconclusive: 79.4 µM [inhibitor, partial curve, poor fit] | –
CCN(CC)c1ccc(/C=N/N2CCN(Cc3ccc(Cl)cc3)CC2)c(O)c1 | active: 10 µM | –
CC(C)CC(=O)Nc1ccc(S(=O)(=O)Nc2cc3c(cc2N2CCOCC2)n(C)c(=O)c(=O)n3C)cc1 | inconclusive: 39.8 µM [inhibitor, partial curve, poor fit] | –
COc1ccc(N2CCN(C(=O)COCC(=O)O)CC2)cc1 | inconclusive: 56.2 µM [inhibitor, partial curve, poor fit] | –
COc1ccc(Br)cc1CN(C)C(=O)c1ccncc1 | – | inactive: -10.9% [at 102 µM]
CC1=C/C(=N\NC(=S)Nc2cccnc2)CC(C)(C)C1 | inconclusive: 39.8 µM [inhibitor, partial curve, poor fit] | –
COc1ccc(-c2noc(CSc3nnc(-c4ccncc4)n3-c3ccc(F)cc3)n2)cc1OC | inconclusive: 79.4 µM [inhibitor, single point] | –
CCCOc1ccccc1/C=N/NC(=O)C1CC1 | inconclusive: 44.7 µM [inhibitor, partial curve, poor fit] | –
CCOc1ccccc1NC(=O)Cn1c(=O)n(CCCC(=O)NCCc2ccc(C)cc2)c(=O)c2ccccc21 | – | inactive: -2.47%
Cc1cccc2c(=O)c(-c3ccc4c(c3)OCO4)c(NC(=O)c3ccco3)oc12 | – | inactive: 5.09% [at 0.0925 µM]
CC1CCCN(CC(=O)Nc2ccc(S(=O)(=O)N3CCCC3)cc2)C1 (stereo not drawn) | – | inactive: -5.97% [at 102 µM]
COC(=O)c1c(NC(=O)C2CC(C)=C(C)CC2C(=O)O)sc2c1CCCCC2 (stereo not drawn) | inconclusive: 56.2 µM [inhibitor, single point] | –
COC(=O)[C@H]1C[C@@H]1[C@H](NC(=O)c1ccccc1)c1ccccc1 | – | inactive: -11.2% [at 102 µM]
Cc1oc(S(=O)(=O)N2CCCCC2)cc1NC(=O)Nc1ccccc1 | inconclusive: 50.1 µM [inhibitor, partial curve, poor fit] | –
COCCNC(=S)N1CCN(c2nc(-c3ccc(F)cc3)cs2)CC1 | active: 50.1 µM | –

Structure (SMILES) | Potency | activity, negative = inhibition
N#Cc1c(-n2ncnc2-c2ccc(Br)cc2)sc2c1CCCCC2 | inconclusive: 2.82 µM [inhibitor, full curve, poor fit] | –
CCOc1ccc(NC(=O)COC(=O)c2ccc3ncsc3c2)cc1OCC | active: 44.7 µM | –
N=c1sccn1CC(=O)N1CCc2ccccc21 | inconclusive: 79.4 µM [inhibitor, single point] | –
COc1ccc(C(=O)N/C(=C\c2cn(C)c3ccccc23)C(=O)NCCCn2ccnc2)cc1 | inconclusive: 89.1 µM [inhibitor, single point] | –
O=c1c2nccnc2[nH]c(=S)n1Cc1ccccc1Cl | – | inactive: -47.8% [at 102 µM]
O=C(C=C1CCN(c2ncc(C(F)(F)F)cc2Cl)CC1)NNC(=O)Nc1ccccc1 | active: 11.2 µM | –
CC(=O)Nc1ccc(S(=O)(=O)N2CCCC(C(=O)N3CCN(c4ccccc4)CC3)C2)cc1 (stereo not drawn) | inconclusive: 25.1 µM [inhibitor, partial curve, poor fit] | –
CCN(CC)Cc1ccc(NC(=O)c2sc3cc(Cl)ccc3c2Cl)cc1 | inconclusive: 25.1 µM [inhibitor, partial curve, poor fit] | –
Cc1ccccc1CNC(=O)C1CCC(=O)N(C2CCCCCC2)C1 (stereo not drawn) | – | inactive: 55.8% [at 102 µM]
COc1cccc(C(=O)NCCS(=O)(=O)NCCCc2ccccc2)c1 | inconclusive: 89.1 µM [inhibitor, single point] | –
COc1ccc2nc(SCC(=O)NC3CC3)c(C#N)cc2c1 | inconclusive: 79.4 µM [inhibitor, partial curve, poor fit] | –
CCN(CC)C(=O)C(=O)c1cccn1-c1cccc(-n2cccc2C(=O)C(=O)N(CC)CC)c1C#N | inconclusive: 89.1 µM [inhibitor, partial curve, poor fit] | –
Fc1ccc([C@H]2CCNCC2COc2ccc3c(c2)OCO3)cc1 (stereo partly drawn) | – | inactive: -21.3% [at 2.33 µM]
O=C(CCCn1c(=O)[nH]c2ccccc2c1=O)NC1CCCCCC1 | – | inactive: 2%
c1coc(CNc2nc3nonc3nc2NCc2ccco2)c1 | inconclusive: 1 µM [inhibitor, full curve, poor fit] | –
Cn1nnnc1SCC1=C(C(=O)O)N2C(=O)C(NC(=O)Cn3nc(C(F)F)cc3C3CC3)C2SC1 (stereo not drawn) | inconclusive: 39.8 µM [inhibitor, partial curve, poor fit] | –
CN(CCOc1ccccc1)S(=O)(=O)c1ccccc1C#N | inconclusive: 28.2 µM [inhibitor, single point] | –
Cc1nc2ccn(Cc3ccccc3)c(=O)c2cc1C(=O)Nc1ccc(F)cc1Cl | – | inactive: 3.49%
Cn1c(=O)c2ncn(CC(=O)NCCC3=CCCCC3)c2n(C)c1=O | inconclusive: 31.6 µM [inhibitor, single point] | –
O=C(NCCCN1CCCC1=O)[C@H](CSCc1ccccc1)N1Cc2ccccc2C1=O | inconclusive: 35.5 µM [inhibitor, single point] | –
COc1cccc(CN(C(=O)c2oc3ccc(Br)cc3c2C)C2CCS(=O)(=O)C2)c1 (stereo not drawn) | – | inactive: -43.4%
CCN(CC)C(=O)C1CCN(Cc2cccc(OCc3ccccc3)c2)CC1 | active: 2.82 µM | –
CCOC(=O)c1nnn(-c2nonc2N)c1COc1cc(C)c(Cl)c(C)c1 | inconclusive: 44.7 µM [inhibitor, partial curve] | –

Structure (SMILES) | Potency | activity, negative = inhibition
COc1ccc(NC(=O)CSc2nnc(NC(=O)c3ccc(S(=O)(=O)N4CCOCC4)cc3)s2)cc1 | – | inactive: 0.349%
COc1ccccc1-c1noc(-c2ccc(NCc3ccccc3)c([N+](=O)[O-])c2)n1 | – | inactive: 9.56%
CCOc1ccc(OCC(=O)Nc2cc3c(cc2C(=O)O)OCCCO3)cc1 | active: 14.1 µM | –
Cc1ccc2[nH]c(=O)c(CN(Cc3nnnn3Cc3ccccc3)C3CCCC3)cc2c1 | active: 8.91 µM | –
CC1CCc2c(sc3nn[nH]c(=O)c23)C1 (stereo not drawn) | inconclusive: 7.08 µM [inhibitor, full curve, poor fit] | –
COC(=O)c1ccnc(/C=N/O)c1 | inconclusive: 35.5 µM [inhibitor, single point] | –
Cc1ccc(-c2cc(N)n(Cc3cccc(Cl)c3)n2)cc1 | inconclusive: 7.94 µM [inhibitor, partial curve] | –
COc1cccc(NC(=O)Cn2c(=O)n(-c3ccccc3)c(=O)c3c4c(sc32)CCCC4)c1 | – | inactive: -3.61%
CC1(C)CC(=O)C2=C(C1)c1c(ccc3ccccc13)NC2c1ccco1 (stereo not drawn) | active: 50.1 µM | –
COc1ccccc1S(=O)(=O)NCc1ccc(C(=O)N(C)Cc2ccc(F)cc2)cc1 | – | inactive: 6.01% [at 2.33 µM]
Cc1ccc(C)c(NC(=O)CCc2nc3cccnc3n2Cc2cccs2)c1 | – | inactive: 2.55%
C=CC[n+]1c(/C=C2\C=Cc3cc(C)ccc3N2CC)ccc2ccccc21 | active: 28.2 µM | –
O=C(NCC(c1ccco1)N1CCN(c2ccccc2)CC1)c1ccco1 (stereo not drawn) | inconclusive: 79.4 µM [inhibitor, partial curve, poor fit] | –
COc1ccc(CC(=O)NCc2ccc(Cl)cc2)cc1S(=O)(=O)N1CCOCC1 | inconclusive: 89.1 µM [inhibitor, partial curve, poor fit] | –
Cc1ccc(O)c(N=CC2=C(O)c3ccccc3C2=O)c1 | active: 31.6 µM | –
COc1ccc(N2Cc3cccc(C(=O)Nc4ccc(C)cc4)c3C2=O)cc1 | inconclusive: 0.562 µM [inhibitor, full curve, poor fit] | –
Cc1ccc(N2C(=O)CC(N3CCN(c4ccc(F)cc4)CC3)C2=O)c(C)c1 (stereo not drawn) | inconclusive: 89.1 µM [inhibitor, single point] | –
Cn1c(SCC(=O)c2ccccc2)ncc(C(=O)Nc2ccc(F)cc2)c1=O | inconclusive: 8.91 µM [inhibitor, partial curve, poor fit] | –
CCOc1ccc(C(O)Cn2c(=N)n(CCN3CCCCC3)c3ccccc32)cc1 (stereo not drawn) | active: 50.1 µM | –
Cc1cc(/C=N/n2cnnc2)c(C)n1-c1cccc(C(=O)O)c1 | – | inconclusive: -77.2% [inhibitor] [at 12.7 µM]
COc1ccc(F)cc1C1=CC(=O)C[C@H](c2ccc3c(c2)OCO3)C1 | – | inactive: -0.804% [at 0.501 µM]
COc1cc(C(=O)N2CCc3c([nH]c4ccccc34)C2c2ccc(F)cc2)cc(OC)c1OC (stereo not drawn) | inconclusive: 35.5 µM [inhibitor, partial curve, poor fit] | –
